Source: a collection of fitness landscapes (doi:10.1016/j.celrep.2020.107928)
Over roughly 81,000 sequences, “one-hybrid fitness for binding parS DNA” has its median near -0.17; the highest 2% begin near 0.51. Some of the results follow.

B1: Caulobacter ParB omega fusion; a variant is named by its letters at X, in order, B8GW30 (parent)
chain: MESVVVGEPGMSEGRRGLGRGLSALLGEVDAAPAQAPGEQLGGSREAPIEILQRNPDQPRRTFREEDLEDLSNSIREKGVLQPILVRPSPDTAGEYQIVAGERAWRAAQRAGLKTVPIMVRELDDLAVLEIGIIENVQRADLNVLEEALSYKVLMEKFERTQENIAQTIGKSXSHVANXMRLLXLPDEVQSYLVSGELTAXHARAIAAAADPVALAKQIIEGGLSVRETEALARKAPNLSAGKSKGGRPPRVKDTDTQALESDLSSVLGLDVSIDHRGSTGTLTITYATLEQLDDLCNRLTRGI

Variants of: B1
Experiment: one-hybrid fitness for binding parS DNA (scaled: cognate 1, non-cognate 0); higher = stronger binding
Details: with parS DNA site
Procedure, shortened: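 The reporter was HIS3, with the binding site 19 bp from the promoter, in E. coli USO used for bacterial one-hybrid selection of Caulobacter ParB libraries with four specificity codons randomised. Growth was on M9 lacking histidine, with 0.1 mM IPTG and 5 mM 3-AT, for 48 hours at 37°C. Illumina sequencing covered plasmids before and after selection; three replicate libraries were pooled and variants with under 10 reads dropped. A fitness score is the log change in variant-to-wild-type read ratio, rescaled to the cognate and non-cognate references.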

one-hybrid fitness for binding parS DNA, 0.497:
RMWY

one-hybrid fitness for binding parS DNA, 0.473:
RHRY

one-hybrid fitness for binding parS DNA, ≤ 0.2:
HAQT
TSWT
RSAD
VPGM
PIDS
QSGF
AAEG
QMHK
LMIW
NCFV
MVKC
VGLD
PAWH
WRPI
PIMC
CGYD
IPVF
CACG
LPTY
QPIR
EYAI
PKWN
TPDF
QWMV
ADLR
DLTS
RPPQ
LLRG
HWCH
SGPF
PMHG
HHQY
NTRF
SSGK
GVFP
RCLI
DDGT
SDSF
WRQC
CANE
QLDF
LKRV
GRFI
ACTN
NGED
RPDA
SCEC
NNTG
TRQR
SLHC
KDDS
LVIW
KDHC
RCQQ
LHQE
SACS
GVNA
HLPF
DFYC
LNEM
RSIE
RQQD
INLC
NVKG
ETCC
VAHN
NVWA
TPKC
PDVG
LSLC
ATRP
PTPD
QHIH
QCML
LDKK
QQWT
YPVA
HYRW
QCSP
FWQS
RGEF
PLHA
